# Laboratory results as given in PubChem BioAssay AID485294 (National Center for Advancing Translational Sciences (NCATS), 2010).
# Among all 370,000 compounds or so, about 150 (0.041%) were called active. The shares of active, inactive and inconclusive entries below differ from those in the screen. Calls come from the whole dose curve; as a rule, active = well fitted inhibition curve with a large enough effect; inconclusive = small, poorly fitted or top-dose-only effect; inactive = flat fitted curve, though single readings scatter. No potency is given beside an inconclusive call; the fits are too rough.
# Molecular target: Beta-lactamase (Escherichia coli (strain K12)) (UniProt P00811)
# Sequence of UniProt P00811 (P00811 whole entry, looked up): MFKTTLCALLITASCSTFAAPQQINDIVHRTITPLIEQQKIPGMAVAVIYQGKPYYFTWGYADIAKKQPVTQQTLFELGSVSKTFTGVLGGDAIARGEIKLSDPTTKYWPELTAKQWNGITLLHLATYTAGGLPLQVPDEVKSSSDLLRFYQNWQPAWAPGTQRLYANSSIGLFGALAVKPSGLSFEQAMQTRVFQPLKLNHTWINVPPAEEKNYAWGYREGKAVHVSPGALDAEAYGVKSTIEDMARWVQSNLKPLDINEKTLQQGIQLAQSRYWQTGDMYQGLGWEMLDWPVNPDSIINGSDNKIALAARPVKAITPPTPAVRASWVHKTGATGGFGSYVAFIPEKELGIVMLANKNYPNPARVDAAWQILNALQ
# Assay: qHTS Inhibitors of AmpC Beta-Lactamase (assay with detergent); note: nearly all actives have a fitted effect of over 25% in size;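 for activity change, negative = inhibition: 0% = no-compound wells and -100% = no-enzyme wells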
# Conditions: AmpC hydrolysis of nitrocefin, absorbance 480 nm, 0.01% Triton; activity change, negative = inhibition: at 114 µM (top of the series)
# In short: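 20 mM phosphate pH 7.0 + 0.01% (detergent screen) or 0.0001% Triton X-100; 5.3 nM AmpC reagent; cpd preinc 15 min RT; nitrocefin (800 uM stock) to start; A480 q20 s × 4 min; Activity was normalised to no-enzyme and no-compound control wells.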
# Potency is the fitted concentration of half-maximal effect; tags give direction and shape of the fitted curve.
SMILES,Potency,"activity change, negative = inhibition"
CC1CCN(c2nc3c(c(=O)[nH]c(=O)n3C)n2CCCc2ccccc2)CC1,"inconclusive [inhibitor, partial curve]",–
COc1cc(Cl)cc(NC(=O)CCN2CCN(C)CC2)c1,"inconclusive [inhibitor, partial curve, poor fit]",–
O=C(c1ccc2nc(-c3ccco3)c(-c3ccco3)nc2c1)N1CCN(c2ccccc2)CC1,"inconclusive [inhibitor, full curve, poor fit]",–
CNC(=O)c1ccccc1Sc1cccc2cccc(C(=O)O)c12,"inconclusive [inhibitor, partial curve, poor fit]",–
CCCCNC(=O)c1onc(CSc2ccc(OC)cc2)c1C(=O)O,"inconclusive [inhibitor, single point]",–
O=C(NNC(=O)C1CCN(C(=O)Nc2ccccc2)CC1)c1ccc(F)cc1,"inconclusive [inhibitor, partial curve, poor fit]",–
O=C(C1CCN(S(=O)(=O)c2cccc3cccnc23)CC1)N1CC=C(c2ccccc2)CC1,"inconclusive [inhibitor, full curve, poor fit]",–
O=C(c1ccco1)N1CCN=C1SCc1ccccc1F,"inconclusive [inhibitor, full curve, poor fit]",–
O=C1/C(=C/c2ccccc2Cl)SC(=S)N1CCCC(=O)N(CCO)c1ccccc1,–,inactive: -7.5%
O=C(CSc1ncn[nH]1)c1ccco1,"inconclusive [inhibitor, full curve, poor fit]",–
O=c1c(-c2cc(-c3ccccc3)nc3c2COc2ccccc2-3)coc2ccc(Cl)cc12,–,inactive: -2.01%
CCN(CC)C(=O)Cn1cc(S(=O)(=O)CC(=O)NC2CCCCC2)c2ccccc21,–,inactive: -5.64%
COc1ccc2oc(-c3ccc(NC(=O)c4ccc(Cl)cc4Cl)cc3)nc2c1,–,inactive: 12.3%
CCOC(=O)C1C(c2ccc(O)c(O)c2)NC(=S)NC1(O)C(F)(F)F (centres undefined),"inconclusive [inhibitor, partial curve, poor fit]",–
CCOc1ccc(/C=C/c2nc(C#N)c(N3CCC(C)CC3)o2)cc1,–,inactive: 23.2%
COCCC(=O)N1CCC(Oc2ccc(C(=O)NCc3ccon3)cc2)CC1,"inconclusive [inhibitor, full curve]",–
COc1cc(-c2nc3n(n2)C(c2cccc(OC)c2OC)C2=C(CCCC2=O)N3)cc(OC)c1OC (centres undefined),"inconclusive [inhibitor, partial curve]",–
Nc1nc(-c2cccs2)c(CC(=O)O)s1,–,inactive: 7.32%
CCOC(=O)c1ccc(NC(=O)CCC(=O)OC)cc1,"inconclusive [inhibitor, partial curve]",–
COc1ccc(C(=O)CC(c2ccccc2)C2C(=O)CCCC2=O)cc1 (centres undefined),"inconclusive [inhibitor, full curve, poor fit]",–
CC(Nc1ccccc1)c1cc(Cl)ccc1O (centres undefined),"inconclusive [inhibitor, partial curve, poor fit]",–
CCN(CC)S(=O)(=O)c1cc([N+](=O)[O-])ccc1N=Nc1c(O)n(C)c2ccccc12,"inconclusive [inhibitor, single point]",–

SMILES,Potency,"activity change, negative = inhibition"
O=S(=O)(c1ccc(SCCOc2ccccc2Cl)nc1)N1CCCC1,–,inactive: 1.2%
O=C(CNC(=O)c1ccco1)OCc1c(F)cccc1Cl,"inconclusive [inhibitor, partial curve]",–
CCCn1c(N)c(C(=O)CSc2nncs2)c(=O)[nH]c1=O,"inconclusive [inhibitor, full curve, poor fit]",–
CNC(=S)NNC(=O)Cc1ccc(OC)c(OC)c1,"inconclusive [inhibitor, single point]",–
CCOc1cc(N2CCOCC2)c(OCC)cc1NC(=O)CSc1ccccc1C(=O)O,"inconclusive [inhibitor, partial curve, poor fit]",–
CCc1ccc(NC(=O)C2CC=CCC2C(=O)O)cc1 (centres undefined),"inconclusive [inhibitor, full curve, poor fit]",–
CCn1c(SCC(O)c2ccccc2)nnc1-c1ccccc1 (centres undefined),–,inactive: -13.3%
N#C/C(=C(/O)CSc1nnc(Cc2cccs2)n1C1CCCCC1)c1nc2ccccc2[nH]1,"inconclusive [inhibitor, partial curve, poor fit]",–
NC(=S)N=Nc1c(O)[nH]c2ccccc12,"inconclusive [inhibitor, full curve]",–
Cn1c(NCCCO)nc2c1c(=O)n(Cc1ccccc1F)c(=O)n2C,–,inactive: -15.7%
COc1ccccc1NC(=O)COc1ccccc1C(=O)c1cnn(-c2ccccc2)c1,–,inactive: -2.15%
COCCNC(=O)Nc1ccc2c(c1)N(C)C(=O)CS2,"inconclusive [inhibitor, partial curve]",–
CCOC(=O)N1CCN(c2cc(=O)n(-c3ccc(Br)cc3)c(=O)[nH]2)CC1,"inconclusive [inhibitor, single point]",–
C/C(=N\Nc1nc2ccccc2s1)c1cccs1,–,inactive: 10.1%
COCC(=O)N1CCC(Oc2ccc(C(=O)N3CCCCCCC3)cc2)CC1,–,inactive: 0.201%
CC(C)NC(=O)CN1C(=O)c2cccnc2Sc2ccccc21,–,inactive: -1.21%
CCCC(=O)Nc1cccc(C(=O)Nc2nccs2)c1,"inconclusive [inhibitor, full curve, poor fit]",–
Cc1cc(=O)n2nc(N3CCCC(C(=O)NC4CCCCC4C)C3)sc2n1 (centres undefined),"inconclusive [inhibitor, full curve, poor fit]",–
COc1ccc(NS(=O)(=O)c2cc(S(C)(=O)=O)ccc2C)cc1,"inconclusive [inhibitor, full curve, poor fit]",–
C/C(N)=C(/C#N)C(=O)COC(=O)Cc1coc2cc(C)ccc12,–,inactive: 5.56%
Cc1nnc(SCC(=O)Nc2nc(C(C)(C)C)cs2)s1,"inconclusive [inhibitor, partial curve]",–
O=C(CCc1ccccc1)OCCOC(=O)CCc1ccccc1,"inconclusive [inhibitor, full curve, poor fit]",–
